# Data as given in patent publication US10532068B2, “Dual molecular delivery of oligonucleotides and peptide containing conjugates” (Merck Sharp & Dohme Corp., priority 2013, dated 2020).
# At least one peptide structure holds a part that was inferred or is arguable (an end, a ring closure or a residue). Where a SMILES comes first, the peptide text is derived from it. [ ]: non-standard residue; d: D form. The star is where a group is joined. X1 = CC(=O)N[C@H]1[C@H](OCCOCCn2cc(CN(CCCC[C@@H](C(=O)NCCS*)N(Cc3cn(CCOCCO[C@@H]4O[C@H](CO)[C@H](O)[C@H](O)[C@H]4NC(C)=O)nn3)Cc3cn(CCOCCO[C@@H]4O[C@H](CO)[C@H](O)[C@H](O)[C@H]4NC(C)=O)nn3)Cc3cn(CCOCCO[C@@H]4O[C@H](CO)[C@H](O)[C@H](O)[C@H]4NC(C)=O)nn3)nn2)O[C@H](CO)[C@H](O)[C@@H]1O; Aib = CC(C)(N)C(=O)O
# Legend:
# CTNNB1 [1] = experiment: In Vitro DMD Assay: mRNA silencing enhancement by peptide conjugates after siRNA-IV treatment of primary mouse hepatocytes (RT-qPCR); type: cell-based; conditions: siRNA-IV 125 nM
# CTNNB1 [2] = experiment: In vivo evaluation in mice: liver mRNA knockdown measurement (TaqMan qPCR); parameters: species or system CD-1 mice; conditions: mice
# Outline: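 Female CD-1 mice got siRNA (SCE) and targeting peptide i.v. (tail vein) or s.c., co-formulated at t=0 or sequentially (peptide −2 hr to +24 hr vs siRNA). Liver punches taken at set times after siRNA dosing; TaqMan qPCR with PPIB housekeeping, ΔΔCt relative to PBS control.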
SMILES,In vitro dddCt (vs. baseline SCE dose) (CTNNB1 [1]; Targeted peptide dose 8 nM),In vitro dddCt (vs. baseline SCE dose) (CTNNB1 [1]; Targeted peptide dose 25 nM),In vitro dddCt (vs. baseline SCE dose) (CTNNB1 [1]; Targeted peptide dose 40 nM),In vitro dddCt (vs. baseline SCE dose) (CTNNB1 [1]; Targeted peptide dose 125 nM),In vitro dddCt (vs. baseline SCE dose) (CTNNB1 [1]; Targeted peptide dose 200 nM),In vitro dddCt (vs. baseline SCE dose) (CTNNB1 [1]; Targeted peptide dose 625 nM),In vitro dddCt (vs. baseline SCE dose) (CTNNB1 [1]; Targeted peptide dose 1000 nM),In vitro dddCt (vs. baseline SCE dose) (CTNNB1 [1]; Targeted peptide dose 3125 nM),In vitro dddCt (vs. baseline SCE dose) (CTNNB1 [1]; Targeted peptide dose 5000 nM),"In vivo mRNA knockdown (%) (CTNNB1 [2]; Table 6, sequential, peptide IV 15 min after siRNA IV, TGN-L-siRNA-III 0.25 mg/kg, peptide 5 mg/kg)","In vivo mRNA knockdown (%) (CTNNB1 [2]; Table 6, sequential, peptide IV 15 min after siRNA IV, TGN-L-siRNA-III 0.5 mg/kg, peptide 5 mg/kg)","In vivo mRNA knockdown (%) (CTNNB1 [2]; Table 6, sequential, peptide IV 15 min after siRNA IV, TGN-L-siRNA-III 0.25 mg/kg, peptide 2 mg/kg)","In vivo mRNA knockdown (%) (CTNNB1 [2]; Table 6, sequential, peptide IV 15 min after siRNA IV, TGN-L-siRNA-III 0.25 mg/kg, peptide 10 mg/kg)","In vivo mRNA knockdown (%) (CTNNB1 [2]; Table 6, sequential, peptide IV 15 min after siRNA IV, TGN-L-siRNA-III 0.25 mg/kg, peptide 25 mg/kg)","In vivo mRNA knockdown (%) (CTNNB1 [2]; Table 6, sequential, peptide IV 15 min after siRNA IV, TGN-L-siRNA-III 0.25 mg/kg, peptide 35 mg/kg)","In vivo mRNA knockdown (%) (CTNNB1 [2]; Table 7, TGN-L-siRNA-II 0.5 mg/kg, peptide 2 mg/kg, Co-dosing-SC)","In vivo mRNA knockdown (%) (CTNNB1 [2]; Table 7, TGN-L-siRNA-II 0.5 mg/kg, peptide 2 mg/kg, Sequential dosing-SC (peptide 15 min after siRNA))","In vivo mRNA knockdown (%) (CTNNB1 [2]; Table 7, TGN-L-siRNA-II 0.5 mg/kg, peptide 10 mg/kg, Co-dosing-SC)","In vivo mRNA knockdown (%) (CTNNB1 [2]; Table 7, TGN-L-siRNA-II 0.5 mg/kg, peptide 10 mg/kg, Sequential dosing-SC (peptide 15 min after siRNA))"
CC[C@@H](C)[C@@H](NC(=O)[C@@H](CC(C)C)NC(=O)[C@@H](CC(N)=O)NC(=O)[C@@H](CCC(=O)O)NC(=O)[C@@H](CC(C)C)NC(=O)CNC(=O)[C@@H](CCC(=O)O)NC(=O)[C@@H](CCC(=O)O)NC(=O)[C@H](NC(=O)[C@@H](CC(C)C)NC(=O)[C@@H](CCC(=O)O)NC(=O)[C@@H](CCC(=O)O)NC(=O)[C@H](NC(=O)[C@@H](CCC(=O)O)NC(=O)CNC(=O)[C@@H](Cc1ccccc1)NC(=O)[C@@H](CC(C)C)NC(=O)CNC(=O)[C@H](N)CSSCCNC(=O)[C@H](CCCCN(Cc1cn(CCOCCO[C@@H]2O[C@H](CO)[C@H](O)[C@H](O)[C@H]2NC(C)=O)nn1)Cc1cn(CCOCCO[C@@H]2O[C@H](CO)[C@H](O)[C@H](O)[C@H]2NC(C)=O)nn1)N(Cc1cn(CCOCCO[C@@H]2O[C@H](CO)[C@H](O)[C@H](O)[C@H]2NC(C)=O)nn1)Cc1cn(CCOCCO[C@@H]2O[C@H](CO)[C@H](O)[C@H](O)[C@H]2NC(C)=O)nn1)[C@H](C)CC)[C@H](C)CC)C(=O)N[C@H](CC(=O)O)C(=O)N[C@H](Cc1c[nH]c2ccccc12)C(N)=O [TGN-S-S-SEQ ID NO: 1704 (D)] (H-[dC](X1)G[dL][dF]G[dE][dI][dE][dE][dL][dI][dE][dE]G[dL][dE][dN][dL][dI][dD][dW]-NH2),−0.09,−0.08,0.1,−0.32,−1.28,−0.56,−1.76,−0.39,−1.74,64%,,,,,,,,,
CC[C@H](C)[C@H](NC(=O)[C@H](CC(C)C)NC(=O)[C@H](CC(N)=O)NC(=O)[C@H](Cc1c[nH]cn1)NC(=O)[C@H](CC(C)C)NC(=O)C(C)(C)NC(=O)[C@H](CCC(=O)O)NC(=O)[C@H](CCC(=O)O)NC(=O)[C@H](CC(C)C)NC(=O)[C@H](CC(C)C)NC(=O)CNC(=O)C(C)(C)NC(=O)[C@@H](NC(=O)[C@H](CCC(=O)O)NC(=O)CNC(=O)[C@H](Cc1ccccc1)NC(=O)[C@H](Cc1ccccc1)NC(=O)CNC(=O)[C@@H](N)CSSCCNC(=O)[C@H](CCCCN(Cc1cn(CCOCCO[C@@H]2O[C@H](CO)[C@H](O)[C@H](O)[C@H]2NC(C)=O)nn1)Cc1cn(CCOCCO[C@@H]2O[C@H](CO)[C@H](O)[C@H](O)[C@H]2NC(C)=O)nn1)N(Cc1cn(CCOCCO[C@@H]2O[C@H](CO)[C@H](O)[C@H](O)[C@H]2NC(C)=O)nn1)Cc1cn(CCOCCO[C@@H]2O[C@H](CO)[C@H](O)[C@H](O)[C@H]2NC(C)=O)nn1)[C@@H](C)CC)C(=O)N[C@@H](CC(=O)O)C(=O)N[C@@H](Cc1c[nH]c2ccccc12)C(=O)N[C@@H](Cc1c[nH]c2ccccc12)C(=O)N[C@@H](CC(N)=O)C(=O)NCC(N)=O [TGN-S-S-SEQ ID NO: 1711 (L)] (H-C(X1)GFFGEI[Aib]GLLEE[Aib]LHNLIDWWNG-NH2),−0.07,,−0.13,,−0.03,,−0.07,,−0.18,,36%,,,,,,,,
CC[C@@H](C)[C@@H](NC(=O)[C@@H](CCC(=O)O)NC(=O)CNC(=O)[C@@H](Cc1ccccc1)NC(=O)[C@@H](CC(C)C)NC(=O)CNC(=O)[C@@H](CSSCCNC(=O)[C@H](CCCCN(Cc1cn(CCOCCO[C@@H]2O[C@H](CO)[C@H](O)[C@H](O)[C@H]2NC(C)=O)nn1)Cc1cn(CCOCCO[C@@H]2O[C@H](CO)[C@H](O)[C@H](O)[C@H]2NC(C)=O)nn1)N(Cc1cn(CCOCCO[C@@H]2O[C@H](CO)[C@H](O)[C@H](O)[C@H]2NC(C)=O)nn1)Cc1cn(CCOCCO[C@@H]2O[C@H](CO)[C@H](O)[C@H](O)[C@H]2NC(C)=O)nn1)NC(C)=O)C(=O)N[C@H](CCC(=O)O)C(=O)N[C@H](CCC(=O)O)C(=O)N[C@H](CC(C)C)C(=O)N[C@@H](C(=O)N[C@H](CCC(=O)O)C(=O)N[C@H](CCC(=O)O)C(=O)NCC(=O)N[C@H](CC(C)C)C(=O)N[C@H](CCC(=O)O)C(=O)N[C@H](CC(N)=O)C(=O)N[C@H](CC(C)C)C(=O)N[C@@H](C(=O)N[C@H](CC(=O)O)C(=O)N[C@H](Cc1c[nH]c2ccccc12)C(=O)NCC(=O)N[C@H](CC(N)=O)C(=O)NCC(N)=O)[C@H](C)CC)[C@H](C)CC [TGN-S-S-SEQ ID NO: 1709 (D)] (Ac-[dC](X1)G[dL][dF]G[dE][dI][dE][dE][dL][dI][dE][dE]G[dL][dE][dN][dL][dI][dD][dW]G[dN]G-NH2),−0.43,,−0.62,,−0.92,,−1.03,,−0.89,,,54%,65%,77%,81%,66%,54%,77%,72%
